Usually GI50 stands for the concentration giving 50% growth inhibition. A word on the TGI: it is the concentration at which net growth stops. Lower therefore signals greater sensitivity of the cells.

The experiment relates to NCI-H322M lung. The experiment in a line: DTP human tumour cell line panel, 48 h.

Values joined by “and” are separate entries in the source; they are usually repeats but may differ in a detail not shown here. Equal entries are not always repeated.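 Grown in 96-well plates, cells were treated for 48 hours with each compound at five concentrations. Insufficient inhibition: endpoint recorded as highest concentration tested. GI50: concentration for 50% inhibition of growth. TGI: concentration producing complete growth inhibition.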

As to `CC(=O)[C@@]1(O)[C@H](C)C[C@H]2[C@@H]3C=C(C)C4=Cc5c(cnn5-c5ccccc5)C[C@]4(C)[C@H]3[C@@H](O)C[C@@]21C`, the GI50 is 3.73 µM and the TGI was found to be 15.2 µM.

Compound `Br/C(=N\Nc1nn[nH]n1)c1ccncc1` gave a TGI above 100 µM.

`O[C@@H]1C[C@H]2N3CC[C@@]2(c2cc4c(cc2C3)OCO4)[C@H]2O[C@@H]12` had a TGI above 100 µM.

As to `CC(=O)OCC(OC(C)=O)C(OC(C)=O)C(OC(C)=O)C(C=NN(C(C)=O)S(=O)(=O)c1ccc(/C=C2\NC(=O)NC2=O)cc1)OC(C)=O` (configuration not stated), the TGI was above 100 µM.

Take `O=C1C2CN(Cc3ccccc3)CC1CN(CC1CC1)C2`: the TGI was above 100 µM.

For `CN(C)CCOC(c1ccccc1)c1ccccc1`, the GI50 is 35.5 µM; the TGI was 50.6 µM and > 100 µM.

For the compound `COC(=O)/C=C/c1cn(C(C)=O)c2ccc(Br)cc12`, the GI50 was 34.1 µM and the TGI is above 100 µM.

Compound `O=C1CC(O)(c2ccccc2)C(c2ccccc2)=C1c1ccccc1` (configuration not stated) displayed a TGI above 100 µM.

Turning to `O=C1OC(c2ccccc2)(c2cc(Br)c(O)c(Br)c2)c2ccccc21` (configuration not stated), the GI50 was 23.2 µM and the TGI came to 69.2 µM.

For `O=C(Nc1nc2ccc(F)cc2s1)c1cccnc1Nc1ccc(Cl)cc1`, the GI50 was 3.87 µM and the TGI was above 100 µM.

`C=CCSSCC=C` gave a TGI above 100 µM.

The compound `COC(=O)Nc1nc2ccc(NC(=O)c3cccs3)cc2[nH]1` displayed a TGI above 100 µM.

Take `Cc1ccc(-c2nc(-c3cnccn3)n(C3OC(CO)C(O)C(O)C3O)n2)cc1` (configuration not stated): the TGI is above 100 µM.

`CC(C)=CCN1c2ccc(Cl)cc2NC(=O)CC1C` (configuration not stated) displayed a TGI above 100 µM.

`CN(CC(=O)O)c1ncc2c(n1)-c1ccccc1OC2` came in with a TGI above 100 µM.

In the case of `O=C(NN=C1CCCCC1)c1[nH]c2ccc(F)cc2c1-c1ccccc1`, the GI50 is above 100 µM and the TGI was above 100 µM.

Turning to `O=C1c2ccccc2-c2c1c1c(O)cccc1n2-c1ccccc1`, the GI50 was above 100 µM and the TGI is above 100 µM.

Take `CCC[CH2][Sn]1([CH2]CCC)[O]C(=O)c2ccc(C)cc2[O]1`: the GI50 is 1.48 µM and the TGI was 2.82 µM.

Consider `CSCCOC(=O)C(=[N+]=[N-])c1ccc([N+](=O)[O-])cc1`, for which the TGI is above 100 µM.

`CN1CCN(CCCCN2c3ccccc3Sc3cc(N=[N+]=[N-])ccc32)CC1` showed a TGI of 5.26 µM.

The compound `COc1cc2c(cc1OC)C(=O)Cc1ccc(OC)c(OC)c1CN(C)CC2` had a TGI above 100 µM.

Regarding `O=c1[nH]cnc2c1CCCN2`, the TGI is above 100 µM.

The compound `COC(=O)c1c2c(cc3c1CC1(Cc4cc5c(cc4C1=O)CCC5)C3)CCC2` (configuration not stated) gave a concentration for total growth inhibition (TGI) above 100 µM.

The compound `Cc1cc(-c2nc3ccc(F)cc3s2)ccc1N` yielded a TGI above 100 µM.

In the case of `Cc1ccc(-c2nc(N3CCCNCC3)c3oc(-c4ccccc4)nc3n2)cc1`, the GI50 is 1.71 µM and the TGI stood at 3.08 µM.

In turn, `Cc1ccc(C)c2c1CC(Cc1ccccc1C(=O)O)C2=O` (configuration not stated) gave a TGI above 100 µM.

`Fc1cccc2c1cc1ccc3cccc4ccc2c1c34` returned a TGI above 100 µM.

In the case of `Cc1ncsc1-c1ccc(CNC(=O)[C@@H]2C[C@@H](O)CN2C(=O)[C@@H](NC(=O)C2(C#N)CC2)C(C)(C)C)cc1`, the GI50 was above 100 µM and the TGI was above 100 µM.

`CSc1nc(SC)c2ncn(C3CC(Oc4ccc(C)cc4)C(COc4ccc(C)cc4)O3)c2n1` (configuration not stated) displayed a TGI above 100 µM.

In the case of `CN(C)/C=N/NC(=O)/C(C#N)=C/N(C)C`, the TGI is above 100 µM.

Compound `NCCN1C(=O)C2C3c4ccccc4C(c4ccccc43)C2C1=O` (configuration not stated) gave a TGI above 100 µM.

As for `CC(=O)OCCOc1cc2c([nH]c3ccccc32)c(C)c2cccc1-2`, the TGI came out at 28.2 µM.

`COc1ccc2oc(C(=O)O)c3c2c1CCC3` returned a TGI above 100 µM.

`O=c1[nH]cnc2c1ncn2[C@@H]1C[C@H]1CO` had a TGI above 100 µM.

In turn, `CCCCC(=O)OC[n+]1ccc2c(C)c3[nH]c4ccccc4c3c(C)c2c1` came in with a TGI of 1.73 µM.

Turning to `COc1cc(-c2ncn(/C=C\C(=O)OC(C)C)n2)cc(C(F)(F)F)c1`, the GI50 was 0.253 µM and 0.219 µM; the TGI was 5.14 µM and 11.2 µM.

(Values after PubChem BioAssay (NCI).)
